Laboratory results reported in PMC4336329 (PLoS ONE, 2015).
Hit rate of the full screen: of about 310,000 compounds, about 14,000 (4.5%) showed an effect of 50% or more. Effects have a minus sign here. The list shows a part of the results.

Biological target: human ether-à-go-go-related gene (hERG) potassium channel (human, UniProt Q12809)
Assay: primary screen, population patch clamp on CHO cells stably expressing hERG
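Further: peak tail current of the secondary pulse compared with the same well before compound.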

Sequence of human ether-à-go-go-related gene (hERG) potassium channel (Q12809 whole entry, looked up): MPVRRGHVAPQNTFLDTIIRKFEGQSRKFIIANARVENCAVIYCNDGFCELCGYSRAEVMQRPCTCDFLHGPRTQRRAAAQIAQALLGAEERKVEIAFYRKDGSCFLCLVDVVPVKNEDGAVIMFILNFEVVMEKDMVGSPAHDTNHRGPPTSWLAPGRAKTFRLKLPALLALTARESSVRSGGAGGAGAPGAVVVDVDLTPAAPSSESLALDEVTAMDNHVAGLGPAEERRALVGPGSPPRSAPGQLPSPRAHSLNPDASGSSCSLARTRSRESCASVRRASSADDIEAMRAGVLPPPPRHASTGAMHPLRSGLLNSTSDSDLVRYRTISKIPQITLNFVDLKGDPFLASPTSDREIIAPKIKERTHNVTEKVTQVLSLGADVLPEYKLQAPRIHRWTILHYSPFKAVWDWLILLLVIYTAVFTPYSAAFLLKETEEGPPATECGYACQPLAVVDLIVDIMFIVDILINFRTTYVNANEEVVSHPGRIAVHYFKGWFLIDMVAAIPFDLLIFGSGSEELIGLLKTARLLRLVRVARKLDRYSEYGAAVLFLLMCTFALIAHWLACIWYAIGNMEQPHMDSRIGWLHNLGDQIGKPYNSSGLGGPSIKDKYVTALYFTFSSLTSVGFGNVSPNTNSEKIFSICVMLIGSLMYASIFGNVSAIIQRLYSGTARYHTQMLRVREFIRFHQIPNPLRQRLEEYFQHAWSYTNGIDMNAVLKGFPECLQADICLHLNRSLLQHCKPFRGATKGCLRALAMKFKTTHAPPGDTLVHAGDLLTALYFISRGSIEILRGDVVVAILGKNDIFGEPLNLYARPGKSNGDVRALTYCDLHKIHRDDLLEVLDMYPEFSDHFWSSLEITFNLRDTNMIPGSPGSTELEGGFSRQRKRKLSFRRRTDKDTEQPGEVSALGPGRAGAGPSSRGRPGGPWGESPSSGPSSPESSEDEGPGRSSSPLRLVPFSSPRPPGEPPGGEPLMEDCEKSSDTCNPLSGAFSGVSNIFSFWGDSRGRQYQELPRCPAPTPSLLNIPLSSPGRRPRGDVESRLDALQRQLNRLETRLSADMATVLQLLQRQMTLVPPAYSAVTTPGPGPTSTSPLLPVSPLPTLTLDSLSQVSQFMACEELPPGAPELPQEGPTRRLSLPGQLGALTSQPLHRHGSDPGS

SMILES	hERG current change (%, negative = inhibition) at 10uM [%]
CC1=C(C(=O)OCc2ccccc2)C(c2cccnc2)c2c(n(C)c(=O)n(C)c2=O)N1 (centres unmarked)	-32.5
COc1ccc(NC(=O)c2ccc3c(c2)S(=O)(=O)c2ccccc2C3=O)cc1	7.94
COc1ccc(CCN2C(=O)c3cccnc3C2=O)cc1OC	-14.5
COc1ccccc1C(CNc1ncnc2sc(C)c(C)c12)N(C)C (centres unmarked)	-55.4
O=C(Nc1ccc(-c2n[nH]c(=S)o2)cc1)c1ccccc1Cl	21.1
CCCN(CC1CCCO1)C(=O)c1cc(COc2ccc(F)cc2F)on1 (centres unmarked)	-15
CCOC(=O)c1ccccc1NC(=O)COC(=O)CCC(=O)N1CCOCC1	0.246
COc1ccc(S(=O)(=O)N2CCN(Cc3cccc(OC)c3)CC2)cc1	-28.6
O=C(NCc1ccccn1)c1n[nH]c(=O)c2ccccc12	10.6
CC1(C)NC(=O)N(CC(=O)N2CCN(S(=O)(=O)c3ccccc3F)CC2)C1=O	-3.13
COc1ccc(N(C(=O)c2cnccn2)C(C(=O)NCc2ccccc2)c2ccc(O)cc2)cc1 (centres unmarked)	1.87
Br.Cc1ccc(S(=O)(=O)CCSC(=N)N)cc1	13.1
CCOC(=O)N1CCN(CCC(=O)Nc2cc([N+](=O)[O-])ccc2OC)CC1	-49.9
O=C(CCC(=O)Nc1ccc(F)cc1)N/N=C/c1cccc(Br)c1	-0.632
CCN1C(=NCc2cc(OC)c(OC)c(OC)c2)N[C@@H](c2ccccc2)[C@H](C(=O)OC)[C@H]1C	8.16
CC(C)(C)C(=O)CNS(=O)(=O)c1ccc(S(=O)(=O)NC2CC2)cc1	12.3
COC(c1ccccc1)c1nnc(CCC(=O)NCc2cccc(-n3cccn3)c2)o1 (centres unmarked)	-19.8
O=C(N/N=C1\C/C(=N\NC(=O)c2ccncc2)c2ccccc21)c1ccncc1	4.01
CCOc1ccc(-n2c(C)nc3cc(C(=O)NCCCN4CCOCC4)ccc32)cc1	-4.81
CC(C)(C)NC(=O)C(OC(=O)c1cccs1)c1ccc(C#N)cc1 (centres unmarked)	5.04
CC(C)N(Cc1nnc(-c2ccc(Cl)cc2)o1)C(=O)C1=COCCO1	-19.9
CCOc1ccc(NC(=O)CSc2nc(=O)n(Cc3cccnc3)c3c2CCC3)cc1	-8.74

SMILES	hERG current change (%, negative = inhibition) at 10uM [%]
CCOCCCNC(=O)C(c1ccc(C)cc1)N(Cc1cccs1)C(=O)c1ccccc1O (centres unmarked)	-22.2
Cn1c(SCC2CCCO2)nnc1-c1ccc([N+](=O)[O-])cc1 (centres unmarked)	-63.8
CCCOc1ccc(C(=O)CCNC(Cc2c[nH]c3ccccc23)C(=O)O)cc1 (centres unmarked)	14.1
CC(=O)Nc1ccc(S(=O)(=O)NCC(=O)N2CCN(S(=O)(=O)c3cccs3)CC2)cc1	15
COc1nc(/C=C/N(C)C)c([N+](=O)[O-])c(OC)n1	3.52
COc1ccc(C(=O)Nc2ccccn2)cc1	5.19
O=C(c1cc(F)ccc1F)C1CCCN(Cc2cccn2-c2ccccn2)C1 (centres unmarked)	-77.9
O=C(NCc1ccccn1)C1CCN(C(=O)c2cc3sccc3n2Cc2ccc(F)cc2)CC1	-46.5
COc1ccc(Cl)cc1C(=O)Nn1cnnc1	21.4
Cc1ccccc1CSc1nnc(Cn2c(=O)sc3ccccc32)n1C	-6.32
COc1nc(N)nc(N2CCOCC2)n1	5.42
Cc1ccc(NC(=O)c2cc3cc(OC(F)(F)F)ccc3[nH]2)cc1	10.7
Cc1ccc(C(=O)NC(O)C(Cl)Cl)cc1 (centres unmarked)	15.4
COc1ccccc1CCN1CCCC(CN(C)Cc2ccc(OCCO)cc2)C1 (centres unmarked)	-40.8
CC(=O)Nc1ccc(S(=O)(=O)N2CCN(CC(=O)N3CCOCC3)CC2)cc1	13.1
COc1ccccc1NC(=O)CCN1C(=O)C2C3CCC(C3)C2C1=O (centres unmarked)	7.66
CCCCCn1c(=O)[nH]c2cc(C(=O)NCCCN(C)Cc3ccccc3)ccc2c1=O	4.62
CCOc1ccc2sc(NS(=O)(=O)c3ccc(N)cc3)nc2c1	12
Cc1ccccc1C(=O)O	2.95
CN1CCc2c(sc(N)c2C(N)=O)C1	6.59
N#Cc1ccc(S(=O)(=O)NCC(=O)OCC(=O)NCCc2ccccc2)cc1	10.7
Cc1cc(OCc2cccc(Cl)c2)c(C)cc1CN1CCOCC1	0.275
